The source of these data is a collection of fitness landscapes (doi:10.1126/science.1257360).

Some of the results follow.

B1: PhoQ; a variant is named by its letters at X, in order, P23837 (parent)
chain: MKKLLRLFFPLSLRVRFLLATAAVVLVLSLAYGMVALIGYSVSFDKTTFRLLRGESNLFYTLAKWENNKLHVELPENIDKQSPTMTLIYDENGQLLWAQRDVPWLMKMIQPDWLKSNGFHEIEADVNDTSLLLSGDHSIQQQLQEVREDDDDAEMTHSVAVNVYPATSRMPKLTIVVVDTIPVELKSSYMVWSWFIYVLSANLLLVIPLLWVAAWWSLRPIEALAKEVRELEEHNRELLNPATTRELTSLVRNLNRLLKSERERYDKYRTTLTDLTHSLKTPLXXLQXXLRSLRSEKMSVSDAEPVMLEQISRISQQIGYYLHRASMRGGTLLSRELHPVAPLLDNLTSALNKVYQRKGVNISLDISPEISFVGEQNDFVEVMGNVLDNACKYCLEFVEISARQTDEHLYIVVEDDGPGIPLSKREVIFDRGQRVDTLRPGQGVGLAVAREITEQYEGKIVAGESMLGGARMEVIFGRQHSAPKDE

Variants of B1 are the subject of this assay. Kind of assay: enrichment ratio after two sorts for PhoP signalling (ratio (wild type AVST 3.29)); higher = more functional. To be noted: with PhoP (E. coli).
On to YHFH, for which the enrichment ratio was not above 0.25.
On to RGIE, for which the enrichment ratio was not above 0.25.
Under AGQY stands not above 0.25; under ISRS, not above 0.25.
Under LHRG stands not above 0.25.
Under PCHV stands not above 0.25; under NALE, not above 0.25.
With GIPP, the enrichment ratio is not above 0.25.
With PMGL the figure was not above 0.25.
With ATMR the figure was not above 0.25; with KATV, not above 0.25.
Turning to MHWT, the enrichment ratio was not above 0.25.
With GFED the figure was not above 0.25; with ICFN, not above 0.25; with TNDP, not above 0.25.
With VSEL the figure was not above 0.25; with ELSW, not above 0.25.
Under CLLQ stands not above 0.25.
For the variant TRAR, the enrichment ratio is not above 0.25.
Under QVSH stands 2.04; under WYWD, not above 0.25; under HTNV, not above 0.25.
Take VMKV: the enrichment ratio is not above 0.25.
As for NDIL, the enrichment ratio is not above 0.25.
Under NTEM stands not above 0.25.
Under RVIG stands not above 0.25.
Under ISWD stands not above 0.25; under TEQG, 5.86; under HYGP, not above 0.25.
With MQQL, the enrichment ratio was not above 0.25.
Under TPLN stands not above 0.25; under YSVD, not above 0.25.
Under REFM stands not above 0.25.
Under LRKC stands not above 0.25; under LEIE, not above 0.25; under MQQI, not above 0.25.
VMDL: the enrichment ratio is not above 0.25.
For the variant QMPR, the enrichment ratio is not above 0.25.
As for QLEA, the enrichment ratio is not above 0.25.
With RGLV the figure was not above 0.25.
With IQHF the figure was not above 0.25; with GEKV, not above 0.25.
Under YTYF stands not above 0.25; under SMAD, 4.68; under HTYF, not above 0.25.
In the case of YMIK, the enrichment ratio was not above 0.25.
Under PSNM stands not above 0.25; under IQDK, not above 0.25.
Under HAYM stands not above 0.25.
For QVMR, the enrichment ratio is not above 0.25.
As to QQFH, the enrichment ratio was not above 0.25.
With FLDV the figure was 7.24; with ILKH, not above 0.25.
Under WRVW stands not above 0.25; under GKLT, not above 0.25.
Under MYES stands not above 0.25; under MTLR, not above 0.25; under ARAL, 1.05.
In the case of TFRM, the enrichment ratio was not above 0.25.
Take IWKF: the enrichment ratio is not above 0.25.
Under LCDE stands not above 0.25.
With HFVS the figure was not above 0.25; with TVGW, 3.79; with HFCH, not above 0.25.
Under MINA stands not above 0.25; under VIFD, not above 0.25; under VTFE, not above 0.25.
As for MRDI, the enrichment ratio is not above 0.25.
For DGHM, the enrichment ratio was not above 0.25.
As to MNNN, the enrichment ratio is not above 0.25.
Under PYWF stands not above 0.25; under GGFP, not above 0.25.
Under GNEQ stands not above 0.25.
Under TLRF stands not above 0.25; under AHLP, not above 0.25.
Regarding YEMH, the enrichment ratio is not above 0.25.
Under RYEL stands not above 0.25; under ESLT, not above 0.25.
With YLMF the figure was not above 0.25; with IQWQ, not above 0.25.
Consider TETI, for which the enrichment ratio came out at 17.3.
For RQKT, the enrichment ratio is not above 0.25.
On to DIVE, for which the enrichment ratio is not above 0.25.
As to IPRG, the enrichment ratio was not above 0.25.
Under NQWS stands not above 0.25.
DIYY: the enrichment ratio was not above 0.25.
Under GFVP stands not above 0.25; under TRFG, not above 0.25; under IHCG, not above 0.25.
For RQSQ, the enrichment ratio was not above 0.25.
With KAGM, the enrichment ratio was not above 0.25.
Take KTNY: the enrichment ratio was not above 0.25.
Under DGWH stands not above 0.25; under REIE, not above 0.25; under ILQG, not above 0.25.
On to NTMT, for which the enrichment ratio is not above 0.25.
For CHFA, the enrichment ratio was not above 0.25.
Under TQQV stands 6.6; under VYFE, not above 0.25; under VLED, not above 0.25.
For PCLV, the enrichment ratio is not above 0.25.
With GSSD the figure was not above 0.25.
Turning to VEEY, the enrichment ratio was not above 0.25.
With PMLF the figure was not above 0.25.
Under LEFG stands 10.6; under VYAS, not above 0.25; under FVNG, not above 0.25.
With AYAP the figure was not above 0.25; with YANV, not above 0.25; with RARP, not above 0.25.
As to KKHN, the enrichment ratio is not above 0.25.
As to HPRT, the enrichment ratio is not above 0.25.
Under DCGW stands not above 0.25.
For the variant VSNG, the enrichment ratio is not above 0.25.
Regarding TWNQ, the enrichment ratio is not above 0.25.
Under PDAT stands not above 0.25; under QSKI, not above 0.25.
For PLTA, the enrichment ratio was not above 0.25.
Under GQEL stands not above 0.25.
With NHMM the figure was not above 0.25; with KIKP, not above 0.25.
Under NQTM stands not above 0.25; under TGGN, 13.9; under LTLN, not above 0.25.
Turning to RIND, the enrichment ratio is not above 0.25.
With MMNC the figure was not above 0.25.
On to YYLL, for which the enrichment ratio was not above 0.25.
As to YAWS, the enrichment ratio is not above 0.25.
Under GRYH stands not above 0.25.
Regarding PPYL, the enrichment ratio is not above 0.25.
Regarding YCFK, the enrichment ratio was not above 0.25.
For WELP, the enrichment ratio was not above 0.25.
Consider LIER, for which the enrichment ratio is not above 0.25.
With MYMY the figure was not above 0.25; with QFPC, not above 0.25; with YESC, not above 0.25.
As to ERLE, the enrichment ratio was not above 0.25.
Under SLPY stands not above 0.25.
For the variant TRAT, the enrichment ratio is not above 0.25.
For AWGY, the enrichment ratio was not above 0.25.
As for NYGE, the enrichment ratio is not above 0.25.
With ICRG the figure was not above 0.25; with MFVI, not above 0.25; with RMGM, not above 0.25.
Consider AWHH, for which the enrichment ratio is not above 0.25.
With KPKI the figure was not above 0.25.
With HQKR the figure was not above 0.25; with QGHY, 10.4; with GTPS, not above 0.25.
Take RGPD: the enrichment ratio was not above 0.25.
Under RPPN stands not above 0.25; under QMFH, not above 0.25; under KQCS, not above 0.25.
On to PMGQ, for which the enrichment ratio is not above 0.25.
For FQCA, the enrichment ratio was not above 0.25.
As for HILF, the enrichment ratio was not above 0.25.
For the variant NQHG, the enrichment ratio was not above 0.25.
Regarding NDSI, the enrichment ratio is not above 0.25.
For the variant SACH, the enrichment ratio was determined as 3.76.
Consider VKAC, for which the enrichment ratio is not above 0.25.
RGYM: the enrichment ratio was not above 0.25.
Take NWQY: the enrichment ratio is not above 0.25.
On to LEVI, for which the enrichment ratio is not above 0.25.
Consider YWLW, for which the enrichment ratio was not above 0.25.
On to VCGR, for which the enrichment ratio was not above 0.25.
FDGN: the enrichment ratio was not above 0.25.
Under WEQP stands not above 0.25.
Under MTWR stands not above 0.25; under LRQA, not above 0.25; under LKRA, not above 0.25.
Take KEGC: the enrichment ratio is not above 0.25.
Regarding FLMV, the enrichment ratio is not above 0.25.
In the case of ACFM, the enrichment ratio was not above 0.25.
Take LGCE: the enrichment ratio was not above 0.25.
Under TASC stands 12.7.
Under VAGY stands 1.53.
With NETM the figure was not above 0.25.
On to PTNM, for which the enrichment ratio is not above 0.25.
DRMP: the enrichment ratio is not above 0.25.
With QFHS the figure was not above 0.25; with QATW, not above 0.25; with PWNT, not above 0.25.
As to MACW, the enrichment ratio is not above 0.25.
Consider GRPV, for which the enrichment ratio is not above 0.25.
Under PKSW stands not above 0.25; under AWMS, not above 0.25.
In the case of NLHQ, the enrichment ratio is not above 0.25.
Under MRRY stands not above 0.25.
With PLTP the figure was not above 0.25; with KINA, not above 0.25.
For HCGD, the enrichment ratio is not above 0.25.
Regarding VYWY, the enrichment ratio was not above 0.25.
Under WALC stands 1.58; under RWLC, not above 0.25; under EKDP, not above 0.25.
Consider SSIW, for which the enrichment ratio was not above 0.25.
With MQGM the figure was not above 0.25; with RAFN, 0.299.
With WMHE the figure was not above 0.25; with AACY, not above 0.25.
With TNFS the figure was not above 0.25; with MTYM, 5.64; with MPVW, not above 0.25.
Regarding IPAV, the enrichment ratio is not above 0.25.
Take VDAS: the enrichment ratio was not above 0.25.
Under FPGY stands not above 0.25; under MSSW, not above 0.25.
Turning to KVMF, the enrichment ratio is not above 0.25.
Under PKGD stands not above 0.25; under EQNC, not above 0.25.
ARRQ: the enrichment ratio was not above 0.25.
With WSVP the figure was not above 0.25; with DSCK, not above 0.25; with FNVT, not above 0.25.
With KCAY the figure was not above 0.25.
Under ELDV stands not above 0.25; under RFVW, not above 0.25; under IAVD, not above 0.25.
For the variant RGGR, the enrichment ratio was not above 0.25.
Under SQCR stands 5.05.
With KYGK the figure was not above 0.25; with DSQE, not above 0.25.
In the case of PCWI, the enrichment ratio is not above 0.25.
As to KCIC, the enrichment ratio was not above 0.25.
With QCHY the figure was not above 0.25.
Take VWGP: the enrichment ratio is not above 0.25.
Turning to RFNM, the enrichment ratio is not above 0.25.
In the case of EGEF, the enrichment ratio was not above 0.25.
In the case of SYNV, the enrichment ratio was not above 0.25.
Under KKGT stands not above 0.25; under LEVL, not above 0.25; under HQNF, not above 0.25.
Consider RPAD, for which the enrichment ratio is not above 0.25.
For MRTT, the enrichment ratio is not above 0.25.
With RLPY the figure was not above 0.25; with PHIF, not above 0.25.
On to EKCS, for which the enrichment ratio is not above 0.25.
PRKC: the enrichment ratio was not above 0.25.
Take LMKY: the enrichment ratio was not above 0.25.
Under KITA stands not above 0.25.
Under VFYM stands not above 0.25.
For LHTH, the enrichment ratio was not above 0.25.
Under NPPT stands not above 0.25; under GPMS, not above 0.25.
With SVYL the figure was not above 0.25.
With MEAE the figure was not above 0.25; with FCKM, not above 0.25; with MYSF, not above 0.25.
For the variant KYTV, the enrichment ratio is not above 0.25.
As for VMYM, the enrichment ratio is not above 0.25.
Consider TMTT, for which the enrichment ratio is 10.4.
As for MYTC, the enrichment ratio was not above 0.25.
As to LCYR, the enrichment ratio is not above 0.25.
Under VQGR stands not above 0.25; under HDYG, not above 0.25; under TYEV, not above 0.25.
With FTWV the figure was not above 0.25; with PSPM, not above 0.25.
Under IFPH stands 0.265.
Consider GREL, for which the enrichment ratio was not above 0.25.
Under GWNV stands not above 0.25; under KTEG, not above 0.25; under IAPN, not above 0.25.
As to QVPT, the enrichment ratio is not above 0.25.
In the case of LDLF, the enrichment ratio is not above 0.25.
Under HPCQ stands not above 0.25; under SYAY, not above 0.25.
With YRNN the figure was 1.24; with ECNQ, not above 0.25; with SNIW, not above 0.25.
In the case of NLAF, the enrichment ratio is not above 0.25.
Under HRLW stands not above 0.25.
KAWR: the enrichment ratio is not above 0.25.
Regarding GFWW, the enrichment ratio worked out at 1.03.
Turning to ISIA, the enrichment ratio was not above 0.25.
For the variant IREA, the enrichment ratio is not above 0.25.
For MPCS, the enrichment ratio was not above 0.25.
For the variant YHDI, the enrichment ratio is not above 0.25.
As to EYDC, the enrichment ratio was not above 0.25.
As for FSYE, the enrichment ratio is not above 0.25.
For the variant VQKD, the enrichment ratio was not above 0.25.
With KKEF the figure was not above 0.25; with PVPK, not above 0.25; with GLFK, not above 0.25.
With YNTY the figure was not above 0.25.
Under LGPI stands not above 0.25; under VANI, not above 0.25; under MYGL, not above 0.25.
For the variant VVLA, the enrichment ratio is not above 0.25.
With ESQT the figure was not above 0.25.
For LREF, the enrichment ratio is not above 0.25.
For the variant AYFF, the enrichment ratio is not above 0.25.
Take WWSW: the enrichment ratio was not above 0.25.
Under NGWQ stands not above 0.25; under AKLT, 6.1; under SKYW, not above 0.25.
With MKRQ the figure was not above 0.25; with IKGH, not above 0.25.
Under KHMT stands not above 0.25.
For RQYT, the enrichment ratio is not above 0.25.
TCGF: the enrichment ratio was determined as 12.5.
With TYMF the figure was not above 0.25; with WLAL, not above 0.25; with PGAL, not above 0.25.
Under GSYN stands not above 0.25; under LYKC, not above 0.25.
